Experimental data published in paper PMC4336329 (PLoS ONE, 2015).
Out of some 310,000 compounds screened, about 2,200 (0.71%) showed an effect of 50% or more. Effects have a minus sign here. This is one part of the list.

Biological target: human ether-à-go-go-related gene (hERG) potassium channel (human, UniProt Q12809)
Assay: primary screen, population patch clamp on CHO cells stably expressing hERG

Sequence of human ether-à-go-go-related gene (hERG) potassium channel (Q12809 whole entry, looked up): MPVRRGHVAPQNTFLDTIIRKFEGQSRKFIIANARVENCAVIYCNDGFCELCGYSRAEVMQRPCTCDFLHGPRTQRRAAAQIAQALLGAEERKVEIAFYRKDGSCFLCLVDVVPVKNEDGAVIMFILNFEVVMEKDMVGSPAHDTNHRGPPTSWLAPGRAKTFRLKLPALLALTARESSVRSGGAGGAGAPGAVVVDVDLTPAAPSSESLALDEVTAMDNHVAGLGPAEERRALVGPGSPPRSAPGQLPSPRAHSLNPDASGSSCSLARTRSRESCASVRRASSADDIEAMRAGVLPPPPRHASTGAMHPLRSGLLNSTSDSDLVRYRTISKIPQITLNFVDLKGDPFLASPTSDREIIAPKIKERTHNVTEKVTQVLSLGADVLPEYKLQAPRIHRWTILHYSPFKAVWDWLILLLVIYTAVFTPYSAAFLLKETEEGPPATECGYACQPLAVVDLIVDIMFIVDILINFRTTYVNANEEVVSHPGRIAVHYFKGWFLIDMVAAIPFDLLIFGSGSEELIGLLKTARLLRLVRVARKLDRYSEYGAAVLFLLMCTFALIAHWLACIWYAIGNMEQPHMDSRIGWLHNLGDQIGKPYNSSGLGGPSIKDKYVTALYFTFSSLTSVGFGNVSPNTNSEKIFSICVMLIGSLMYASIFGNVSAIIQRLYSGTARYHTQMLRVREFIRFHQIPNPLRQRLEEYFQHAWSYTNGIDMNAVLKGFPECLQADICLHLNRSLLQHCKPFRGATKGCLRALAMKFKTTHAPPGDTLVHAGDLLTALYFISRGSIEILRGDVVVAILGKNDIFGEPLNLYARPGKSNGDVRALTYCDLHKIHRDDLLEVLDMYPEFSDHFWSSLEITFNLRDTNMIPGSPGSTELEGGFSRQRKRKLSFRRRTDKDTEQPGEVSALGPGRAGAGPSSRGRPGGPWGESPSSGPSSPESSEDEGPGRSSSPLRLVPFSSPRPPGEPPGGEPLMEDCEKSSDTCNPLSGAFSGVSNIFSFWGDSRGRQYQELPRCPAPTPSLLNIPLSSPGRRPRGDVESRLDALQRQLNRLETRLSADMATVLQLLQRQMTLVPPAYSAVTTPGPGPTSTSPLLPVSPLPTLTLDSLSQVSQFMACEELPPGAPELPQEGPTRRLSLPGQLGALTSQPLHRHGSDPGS

| SMILES | hERG current change (%, negative = inhibition) at 1uM [%] |
| --- | --- |
| Cc1ccc(NC(=O)CSCC(=O)O)c(C)c1 | 23.5 |
| COC(=O)c1ccc(NC(=O)CSC2=NCCN2)cc1.Cl | 10.2 |
| COc1ccc(OC)c(CCNC(=O)c2sc3nc4n(c(=O)c3c2C)CCC4)c1 | 22.4 |
| CCOc1ccc(CN2CCNC(=O)C2CC(=O)OC)cc1 (stereo not shown) | 31 |
| Cc1cc(C)c(C#N)c(Oc2ccc(O)cc2)n1 | 10.9 |
| N#Cc1cccc(-n2nnnc2-c2ccc3c(c2)OCO3)c1 | 11.5 |
| CN(CC(=O)Nc1ccccc1Cl)C(=O)COC(=O)C1CCN(c2ccc(C(F)(F)F)cn2)CC1 | 4.9 |
| CCOc1ccccc1N1CCN(C(=O)c2cc3cc(OC)ccc3[nH]2)CC1 | 12.8 |
| O=C(/C=C/c1ccccc1Cl)NCc1ccccc1 | 11.7 |
| CC(C)=CCN1CCN(Cc2ccc(C#CC(C)(C)O)s2)CC1CCO (stereo not shown) | 8.79 |
| O=C(c1noc2c1CCCC2)N1CCOCC1 | 18 |
| CCCCOC(=O)c1cc(Cl)c(O)c(OC)c1 | 10.5 |
| N#CC1=C(N)Oc2cc(N)ccc2C1c1ccc(F)cc1F (stereo not shown) | -4.19 |
| O=C(Nc1ccc(Cl)c([N+](=O)[O-])c1)C(NCCCO)c1ccccc1 (stereo not shown) | 0.919 |
| Cc1ccc(CN2CC(C(=O)Nc3cccc(C)n3)CC2=O)cc1 (stereo not shown) | -4.52 |
| O=C(CN1CCOCC1)Nc1ccc(Cl)cn1 | 9.56 |
| CC(C)c1ccc(OCC(=O)N(Cc2ccco2)C2CCS(=O)(=O)C2)cc1 (stereo not shown) | -28.3 |
| CC(C)OP(C)(=O)CN1CCN(CP(C)(=O)OC(C)C)CC1 (stereo not shown) | 10.9 |
| O=C(Nc1ccc(C(=O)N2CCCC2)cc1)Nc1ccc(Cl)cc1Cl | 10.4 |
| CCOC(=O)/C=c1\s/c(=C\c2ccc(C(F)(F)F)cc2)c(=O)n1CC(=O)NCc1ccco1 | 8.21 |

| SMILES | hERG current change (%, negative = inhibition) at 1uM [%] |
| --- | --- |
| C/C(=N\NC(=O)c1ccco1)c1cc2ccccc2o1 | 4.19 |
| O=C(CSc1nncs1)NC1CCCCCCC1 | 11.4 |
| Cc1ccccc1C(=O)N1CCC(C(=O)Oc2ccc(C#N)cc2)CC1 | 1.54 |
| COC(=O)c1ccc(N(C(=O)CNC(=O)c2ccco2)C(C(=O)NC2CCCC2)c2ccco2)cc1 (stereo not shown) | 11.9 |
| Cl.Clc1ccc(OCCOCCN2CCc3ccccc3C2)c(Cl)c1 | 0.708 |
| O=[N+]([O-])c1ccc(/C([O-])=C(/C(=S)NCc2ccco2)[n+]2ccccc2)cc1 | 2.63 |
| CC(=O)N(C)c1ccc(NC(=O)COc2ccc(Br)cc2C)cc1 | 6.84 |
| CC(=O)Nc1c(Cl)n(C(C)=O)c2ccccc12 | 11.2 |
| COc1cc(OC)nc(NC(=S)NC(=O)c2ccccc2)n1 | 14.3 |
| Cc1cccc(C)c1NC(=O)CCS(=O)(=O)c1cccc2nonc12 | 13.6 |
| Cc1ccc(-n2nc(C(=O)N/N=C/c3cccc(C(F)(F)F)c3)c3ccccc3c2=O)cc1C | 7.44 |
| Fc1ccc(Cn2nnnc2C(c2cccs2)N2CCCCCC2)cc1 (stereo not shown) | 0.84 |
| O=S(=O)(Nc1ccc2nc(N3CCOCC3)sc2c1)c1ccc(Cl)cc1 | 0.696 |
| CC1=C(C(=O)Nc2cc(C)ccn2)C(c2cnn(C)c2)C2=C(CC(c3ccccc3)CC2=O)N1 (stereo not shown) | 2.84 |
| O=C(CCCCCn1c(=S)[nH]c2ccc(N3CCOCC3)cc2c1=O)NCc1ccccc1Cl | 7.56 |
| Cc1nc2cc(CO)ccc2n1C | 6.74 |
| [O-][n+]1onc2c1CCc1nnc(-c3ccccc3)cc1-2 | 8.5 |
| Cc1nc(NC(=O)/C=C/c2ccccc2)sc1C(=O)N(C)C | 10 |
| CCc1c(C)nc(SCC(=O)Nc2cccc(Br)c2)[nH]c1=O | 18.2 |
| O=C(Nc1ccccc1)c1ccc2nc(-c3ccco3)c(-c3ccco3)nc2c1 | -0.0511 |

| SMILES | hERG current change (%, negative = inhibition) at 1uM [%] |
| --- | --- |
| CCCCOc1ccc(C(=O)NCC(=O)NCC(c2ccco2)N2CCCCC2)cc1 (stereo not shown) | 6.21 |
| COC(=O)c1ccc(N(CC(=O)NC2CCCCC2)C(=O)CNC(=O)c2ccco2)cc1 | 6.58 |
| CC1CCC(NC(=O)CSc2ccc(S(=O)(=O)N(C)C)cn2)CC1 (stereo not shown) | 10.3 |
| Cc1cccc2cc(C#N)c(SCCN3CCCCC3)nc12.Cl | 0.285 |
| Cc1ccc(NC(=O)c2noc3c2CCCCC3)cc1 | -1.17 |
| C=CCn1c(SCc2cc(=O)n3ccsc3n2)nc2sc(C)c(C)c2c1=O | 5.87 |
| CC(=O)c1cccc(N(CC(=O)O)S(C)(=O)=O)c1 | 9.89 |
| COc1cc2c(cc1OC)CN(C(=O)/C=C/c1cccs1)CC2 | 4.16 |
| Cc1ccc(NC(=O)CN(C)C(=O)Cc2ccccc2F)cc1 | 3.53 |
| CC1CCc2c(nc3nc[nH]n3c2=O)C1 (stereo not shown) | 6.99 |
| COC(=O)[C@@]12CCCCN1[C@H](c1ccc(-c3ccccc3)cc1)[C@@H]1C(=O)N(C)C(=O)[C@@H]12.O=C(O)C(F)(F)F | 14 |
| CCCN(CCC)C(=O)c1ccc2c(c1)N(Cc1ccccc1)C(=O)CS2=O (stereo not shown) | 6.36 |
| Cc1ccc(/C(N)=N/OC(=O)COc2ccccc2Cl)cc1 | 3.53 |
| CN1CCN(c2ccccc2N)CC1 | 6.39 |
| CC(C)S(=O)(=O)c1cnc(-c2ccccn2)nc1N | 12.8 |
| CC(=O)OCCCNc1cc(Sc2nc3ccccc3s2)c2nonc2c1[N+](=O)[O-] | 1.04 |
| NC(=O)c1nsc(C(=O)N(Cc2ccc(F)cc2)C(C(=O)NCC2CCCO2)c2ccc(F)cc2)c1N (stereo not shown) | -0.266 |
| COc1ccc(-c2ccc(N(C)C)cc2)cc1[C@H]1[C@@H]2C=CCC[C@@]2(C)C(=O)N1Cc1ccccc1 | 13.1 |
